# Assay results from the RNAGym collection of RNA variant scans (doi:10.1073/pnas.2313332121).
# Variants at the background level are over-represented here.
# B1: TPR 5TU (parent)
# chain: GGAUCUUCUCGAUCUAACAAAAAAGACAAAUCUGCCACAAAGCUUGAGAGCAUCUUCGGAUGCAGAGGCGGCAGCCUUCGGUGGCGCGAUAGCGCCAACGUUCUCAACUAUGACACGCAAAACGCGUGCUCCGUUGAAUGGAGUUUAUCAUG
# Variants of: B1
# Test: polymerase ribozyme fitness, log enrichment relative to wild type (log ratio); higher = more active; in vitro selection for triplet polymerase activity
# Procedure, shortened: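 Libraries of mutants in each subunit of a heterodimeric triplet polymerase ribozyme were generated by PCR and transcribed. In triplicate, each went through one in vitro selection round: annealing with biotinylated primer, partner subunit and triplets; frozen incubation at −7 °C; gel excision of extended constructs; streptavidin-bead capture; RT-PCR. Fitness, taken from Illumina sequencing of input and output libraries, is the logarithm of a genotype's enrichment over wild-type enrichment, averaged across replicates with inverse-variance weights. The logarithm is base 2, and genotypes needed ≥10 input reads and ≥1 read per output to be kept.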
row,Variant,polymerase ribozyme fitness (log ratio)
1,GGAUCUUCUCAAUCUAACAAAAAAGACAGAUCUGCCACAAAGCUUGAGAGCAUCUUCAGAUGCAGAGGUGACAGCCUUCGGUGGCGCGAUAGCGGCAACGUUCUCAACUAUGACACGCAAAACGCGUGCUCCGUGGAAUGGAGUAUAUCAAG,≤ -4.2
2,GGAUCUUCUCAAUCUAACAAAAAAGACAUAUCUGCCACAAAGCUUGAGCGCAUCUUCGGAUGCAGAGGCGGCAGCCUUCGGUGGCGAGAUAGCGCCAAUGUUCUCAACUAUGACACGCAAAACGCGUGUUCCGUUGAAUGUAGUUUAUCAUG,≤ -4.2
3,GGAUCUUCUCAAUCUAACAAAAAAGACAAAUCUGCCACAAAGCUUGACAGCAUCUUCGGAUGCAGAGGCGGCAGCCUUCGGUGGCGCGAUAGCGCCAACGUUCUCAAGUAUGACACGCAAAACGCGUGCUCCGAUGAAUGGAGCUUAUCAUG,≤ -4.2
4,GGAUCUUCUCAAUGUAGCAAAAAAGAGAAAUAUGCCACAAAGCUUGACAGCAUCUUCCGAUGCAGAGGCGGCAGCCUUCGGCGGCGCGAUAGCGCCAACGUUCUCAACUAUGACACGCAAAACGCGUGCUCCGUUGAAUGGAGUUUAUCAUG,≤ -4.2
5,GGAUCUUCUCAAUCUAACAAAAAAGACAAAUCUGCCACAAAGAUUGAGUGCGUCUUCGGAUGCAGAGGCGGCAGCCUUCGAUGGCGCGAAAGCGACAACGUUCUCAACUAUGACACGCAUAACGCGUGCUCCGGUGAAUGGAGUUUAUCAUG,≤ -4.2
6,GGAUCUUCUCAAUCUAACAAAAAAGACAAAUCUGCCACAAAGCUUGAAAGCCUCUUCGGAUGCAGAGGCGGCAGCCUUCGGUAGCGUGAUAGCGCCAACGUUCUCAACUAUGACACGCCAAACCCGUGCUCCGUUGAAUGGAGUUUAUCAUG,≤ -4.2
7,GGAUCUUCUCAAUCUAACAAAAAAGACAAAUCUGCCACAAAGCUUGAGAUCAUCUUUGGGUGCAGAGGCGGCAGCCUUCGGUGGUGCGUUAGCGCCAACGUUCUCACCUAUGACACGCAAAACGCGUGCUCCGUUGAAUGGAGUUUAUCAUG,≤ -4.2
8,GGAUCUUCUCAAUCUAACAAAAAAGACGAAUCUGCCACAAAGCUUGAGAGCAUCUUCGGAUGCAGAGGCGGCAGCCUUCGGUGGGGCGAUAGCGCCAACGUUCUCAACUAUGACACGCAAAACGCGUGCUCCGUUGAAUGGAGUUUAUGAUG,≤ -4.2
9,GGAUCUUCUCAAUCUAACAAAAAAUACAAAUCUGCCACAAAGCUUGAGAGCAUCUUCGGAUGCAGAGGCGGCAGCCUUCGGUCGCGCGAUAGCGCCAACGUUCUCACCUAUGACACGCAAAACGCGUGCUCCGUUGAAUGGAGUUUAUCAUG,≤ -4.2
10,GGAUCUUCUCAAUCUAACAAAAAAGACAAAUCUGCCACAAAGCUUGAGAGCAUCUUUGGGUGCAGAGGCGGCAGCCUUCGGUGGUGCGAUAGCGCCAACGUUGUCAACUAUGACACGCAAAACGCGUGCUCCGUUGAAUGGAGUUUAUCACG,≤ -4.2
11,GGAUCUUCUCAAUCUAACAAAAAAGACAAAUCUGCCACAAAGCUUGAGACCAUCUUCGGAUGCAGAGGCGGCAGCCUUCGGUGGCGCGAUAGUGCCUACGUUCUCAACUAUGACACGCAAAACGCGUGCUCCGUUGAAUGUAGUUUAUCAUG,≤ -4.2
12,GGAUCUUCUCAAUCUAACAAAAAAGACAAAUCUGCCACAAAGCUUGAGAGCGUCUACGGAUGCAGAGGCCGCAGCCUUCGGUGGCGCGAUAGCGCCAACGUUAUCAACUAUGAGACGCAAAACGCGUGCUCCGUUGAAUGGACUUGAUCAUG,≤ -4.2
13,GGAUCUUCUCAAUCUAACAAAAAAGACAAAUCUGCCACAAAGCUUGAGAGCAUAUUCGGAUGCAGAGGCGGGAGCCUUCGGUGGCGCGAUAAUGCCAACGUUCUCAACUAUGACACGCAAAACGCGUGCUCCGUUGAAUGGAGUUUAUCAUG,≤ -4.2
14,GGAUCUUCUCAAUCUAACAAAAAAGACAAAUCUACCACAAAGCUUGAGAGCAUCUUCGGAUGCAGAGGCGGCAGCCUUCGGUGGCACGAUAGCGCCAACGUUCUCAACUAUGACACGCAAAACGCGUGGUCCGGUGAAUGCAGUUUAUCAUU,≤ -4.2
15,GGAUCUUCUCAAUCUAACAAAAAAGACAAAUCUGCCACAAAGCUUGAGAGCAUCUUCGGAUGCAGAGGCGGCAGCCUUCGGUGGCGCGGUAGCACCAACGUUCUGAACUAUCACACGCAAAACGCGUGCUCCGUUGAAUGGAGUUUAUCAUG,≤ -4.2
16,GGAUCUUCUCAAUCUAACAAAAAAGACAAAUCUGCCACAACGCUUGAGAGCAUCUUCGGAUGCAGAGGCGGCAGCCUUCGGUUGCGCGAUAGCGCCAACGUUCUCAACUAUGACACGCAAGACGCGUGCUCCGUUGCAUGGAGUUUAUCCUG,≤ -4.2
17,GGAUCUUCUCAAUCUAACAAAAAAGAAAAAUCUGCCACAAAGCUUGAGAGCAUCUUCGGAUGCAGAGGCGGCAGCCUUCGGUGGCGCGAUAGCGCCAACGUUCUCAACUAUGACACGCAAAACGCGUGCUCCGUUGACUGAAGUUUAUCAUG,≤ -4.2
18,GGAUCUUCUCAAUCUAACAAAAAAGACAAAUCUGCCACAAAGCUUGAGAGCAUCUUCGGAUGCAGAGGCGGCAGCCUUCGGUGGCGCGAUAGCGAUGACGUUCUCAACUAUGACACGCAAAACGCGUGCUCCGUUGAAUGGAGUUUAUCAUG,≤ -4.2
19,GGAUCUUCUCAAUCUAACAAAAAAGACAAAUCUGCCACAAAGCUUGAGAGCAUCUUCGGAUGCAGAGGCGGCAGGCUUCGGUGGUGCGAUAGCGCCAACGUUCUCAACUAUGACAUGUAAAACGCGUGCUCCGAUGAAUGGAGUUUAUUAUG,≤ -4.2

row,Variant,polymerase ribozyme fitness (log ratio)
1,GGAUCUUCUCAAUGUAACAAAAAAGACAAUUCUGCCACUAAGCUAGAGAGCAUCUUCGGAUGCAGAGGUGGCAGCCUUCGGUGGCGCGAUAGCGCCAACGUUCUCAACGAUGACACGCAAAACGCGUGCUCCGUCGAAUGGAGUUUAUCAUG,≤ -4.2
2,GGAUCUUCUCAAUCUAACAAAAAAGACAAAUCUGCCACUAAGCUUGAGAGCCUCUUCGGAUGCAGAGGCGGCAGCCUGCGGUGGCGCUAUAGCGCAAACGUUCUCAACUAUGACACGCAAAACGCGUGCUCCGUUGAAUGUAGUUGAUCAUG,≤ -4.2
3,GGAUCUUCUCAAUCUAACAAAAAAGAGAAAUCUGCCACAAAGCUUGAGAGCAACUUCGGAUGCAGAGGCGGCAGCCUUCGGUUGCACGAUAGCGCCAACGUUCUCAACUAUGACACGCAAAACGCGUGCUCCGUUGAAUAGAGUUUAUCAUG,≤ -4.2
4,GGAUCUUCUCAAUCUAACAAAAAAGACAAAUCUGCCACAAAGCUUGAGAGUAUCUUCGGAUGCAGUGGCGGCAGCCUUAGGUGGCGCGAUAGCGCCAUCGUUCUCAACUAUGACACGCAAAACGCGUGCUCCGUUGAAUGGAGUUUAUCAUG,≤ -4.2
5,GGAUCUUCUCAAUCUAACAAAAAAGACAAAUCUGCCACAACGCUUCAGACCAUCUUCGGAUGCAGAGGCGGCAGCCUUCGGUGGCGCGAUAGCGCCAAUGUUCUCAACUAUGACACGCAAAACGCGUGCUCCGUUGAAUGGAGUUUAUCGUG,≤ -4.2
6,GGAUCUUCUCAAUCUAACAAAAAAGACAAAUCUGCCACAAAGCUUGAGAGCAUCUUCGGAUCCAGAGGCGGCAGCCUUCGGUGGCGCGAGAGCGCUAACGUUCUCAACUAUGACACGCAAAACGCGUGCUCCGUUGAAUGGAGUUUAUCAUG,≤ -4.2
7,GGAUCUUCUCAAUCUAACAAAAAAGACUAAUCUGCCAUAAAGCUUGAGAGCAUCUUCGGAUGCAGAGGCGGCAGCCUUCGGUGGAGCGAUCGCGCCAACGUUCUCAACUAUGACACGCAAAACGCGUGCUCAGUUGAAUAGAGUUUAUCAUG,≤ -4.2
8,GGAUCUUCUCAAUCUAACAAAAAAGACAAGUAUGCCACAAAGCUUGAGAGCAUCUUCGGAUGCAGAGGCGGCAGCCUUCGGUGGCACGAUAGCGCCAACGUUCUCAACUAUGACACGCAAAACGCGUGCUCCGUUGAAUGGAGUUUAUCAUG,≤ -4.2
9,GGAUCUUCUCAAUCUAACAAAAAAGACUAAUCUGCCACAAAGCUUGAGAGCCUCUUCGGAUGCAGAGGCGGCAGGCUUAGGUGGGGGGAUAGCGCCAACGUUCUCGACUAUGACACGCAAAACGCGUGCUCCGGUGAAUAGAGUUUAUCAUG,≤ -4.2
10,GGAUCUUCUCAAUCUAACAAAAAAGACAACUCUGCCACAAAGCUUGAGAGCAUCUUCGGAUGCAGAGGCGGCAGCCUUCGGUGGCGCGAUAGCGCCAGCGUUCUCAACUAUGACACGCAAAACGCGUGCUCCGUUGAAUGGAGUUUAUCAUG,≤ -4.2
11,GGAUCUUCUCAAUCUAACAAAAAAGACAAAUCUGCCACAAAGCUUGAGACCAUCUUCGGAUGCAGAGGCGGCAGCCUUCGAUGGUGCGAUAGCGCCAACGUUCUCAACUAUGACACGCAAAACGCGUGCUCCGUUGAAUUGAGUUUAUCAUG,≤ -4.2
12,GGAUCUUCUCAAUCUAACAAAAAAGACAAAUCUGCCACAAAGCUUGAGAGCAUCUUCGGAUGCAGAGGCGGCAGCCUUCGGUGGCGCGAUAGCGCUAACGUUCUCAACUAUGACACGCAAAACGCGUGCUCCGUUGAAUGGAGUUUAUCAUG,-1.9
13,GGAUCUUCUCAAUCUAACAAAAAAGACAACUCUGCCACAAAGCUUGAGAGCAUCUUCGGAUGCAGAGGCGGCAGCCUUCGGUGGCGCGAUAGCGCCAAAGUUCUCAACUAUGACACGUAAAACGCGUGCUCCGUUGAAUGGAGUGUAUCAUG,≤ -4.2
14,GGAUCUUCUCAAUCUAACAAAAAAGACUAAUCUGCCACAAAGCUUGAGAGCAUCUGCGAAUGCAGAGGCGGCAGCCUUCGGUGGCGCAAUAGCGCGAACGUUCUCAACUUUGACACGCAAAACGCGUGCUCCGUUGAAUGGAGUUUACCAUG,≤ -4.2
15,GGAUCUUCUCAAUCUAACAAAAAAGACAAAUCUGCCACAAAGCUUAAGAGUAUCUUGGGAUGCAGAGGCGGCAGCCUUCGGUGGCGCGAUAGCGCCAACGUUCUCAACUAUGACACGCAAAACGCGUGCUCCGUUGAAUGGAGUUUAUCAUA,≤ -4.2
16,GGAUCUUCUCAAUCUAACAAAAAAGACAAAUCUGCCACAAAGCUUGAGAGUAUCUUCGGAUGCAGAGGCGGCAGCCUUCGCUGGCGCGAUAACGCCAACGUUCUCAACUAUGACACGCAAAACGCGUGCUCCGUUGAAUGGAGUUUAUCAAG,≤ -4.2
17,GGAUCUUCUCAAUCUAACAAAAAAGAUAAAUCUGCCACAAAGCUUGAGGGCAUCUUCGGAUGCAGAGGCGGCAGCCUUCGGUGGCGCGAUAGCGCAAACGUUCUCAACUAUGACACGUAAAACGCGUGCUCCGUUGAAUGGAGUAUAUCAUG,-4.19
18,GGAUCUUCUCAAUCUAACAAAAAAGACAAAUCUGCCACAAAGCUUGAGAGCGUCUUCGGAUGCAGAGGCGGCAGCCUUCGGUGGCGCGAUAGAGCCAACGUUCUCAACUAUGACACGCAUAACGCGUGCUCCGUUGAAUGGAGUUUAUCAUG,≤ -4.2
19,GGAUCUUCUCAAUCUAACAAAAAAGACAAAUCUGCCACAAAGCUUGAGAGCAUCUUCGGAUGCAGAGGCGGCAGCCUUCGGUGGUGCGAUAGCGCCAACGUUCUCAACUAUGACACGCAAAACGCGUGCUCCGUUGAAUGGAGUUUAUCAUG,-1.56
